# Reference: article PMC12040169 (PLOS Biology, 2025)
# Some of the results follow.
# Tested on: T1, C. trachomatis L2/434/Bu expressing GFP (CTL2-GFP)
# T1 construct: L2/434/Bu GFP intracellular growth in HeLa cells
# Parameters: species or system HeLa; C. trachomatis total inclusion area by high-content imaging, normalised to DMSO
# Conditions: total inclusion area; 28.5 h, 10 µM; inhibitor
# How it was run: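 Post-fluorescence-read fixation, DNA staining with Hoechst and high-content imaging; GFP inclusion area and number per well, and nuclei counts, used as proxies for bacterial growth and host viability.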
row,SMILES,% of control remaining
1,Nc1ncnc(NCCCn2ccnc2)c1[N+](=O)[O-] [CBK267312],101.065
2,O=C1CC(c2ccccc2)c2c(n3ccsc3nc2=O)N1 (stereo not drawn) [CBK287923],80.1438
3,CC(=O)Nc1cccc(NC(=O)CCCC(=O)O)c1 [CBK261598],112.738
4,CCN(CC(=O)NCc1ccc(F)cc1)S(=O)(=O)c1ccccc1C#N [CBK305842],70.3208
5,Cc1cnoc1-c1cc(Br)cc(Br)c1O [CBK012420],97.7303
6,Cc1nnc(SCCn2c(N3CC(C)CC(C)C3)nc3c2c(=O)n(C)c(=O)n3C)s1 (stereo not drawn) [CBK269419],97.463
7,COc1ccc(/C=N/NC(=O)c2ccc(CN3CCOCC3)cc2)cc1[N+](=O)[O-] [CBK262708],97.5915
8,Cc1ccc(N(Cc2ccc(C(=O)N(C)Cc3ccccc3)cc2)S(C)(=O)=O)cc1C [CBK263795],105.758
9,N#CC(N)c1c(Cl)cccc1Cl (stereo not drawn) [CBK008288C],69.6115
10,Cn1c(N2CC[C@H](O)C2)nc2cc(C(=O)NCCC3CCCC3)ccc21 [CBK307447],47.2053
11,COc1cc2c(cc1NC(=O)CN(C)S(=O)(=O)c1ccc(Cl)cc1)oc1ccccc12 [CBK267404],102.384
12,Cc1ccc2ncnc(NCCCCCC(=O)O)c2c1 [CBK287256],113.526
13,CC(=O)Nc1ccc(S(=O)(=O)N(C)c2ccccn2)cc1Cl [CBK044789],100.148
14,Cc1cc(C2CCCN2C(=O)c2ccc(C(F)(F)F)nc2)on1 (stereo not drawn) [CBK305761],62.4345
15,COc1cc(NC(=O)CC2(CC(=O)O)CCCCC2)ccc1N1CCCC1=O [CBK296637],80.8043
16,O=C(Nc1ccccn1)c1cnn(-c2ccc(Cl)cc2)c1C(F)(F)F [CBK107442],76.3985
17,Cc1csc(C(Cc2ccsc2)NC(=O)Cc2ccccn2)n1 (stereo not drawn) [CBK285097],108.427
18,CCn1c(C)nc2cc(NC(=O)c3ccc(CN(C)C)cc3)ccc21 [CBK281880],95.5453
19,O=C(O)c1nccnc1-c1ccc(COc2cccc3ccccc23)cc1 [CBK050810],87.132
20,O=c1sn(C2CCCCC2)c(=O)n1Cc1ccc(F)cc1 [CBK113604],109.9
21,O=C(O)CNS(=O)(=O)c1c(F)c(F)c(F)c(F)c1F [CBK269986],63.5501

row,SMILES,% of control remaining
1,C=CCNc1nc(NCCN2CCOCC2)nc(N2CCOCC2)n1 [CBK263074],102.135
2,Cc1ccc(S(=O)(=O)N2CCSC2C(=O)O)cc1 (stereo not drawn) [CBK286964],72.4061
3,O=C(c1cncnc1)N1CC[C@H](c2nc3cc(F)ccc3[nH]2)C1 [CBK289376],101.659
4,COc1ccc2[nH]cc([C@@H]3CCC[C@H](NC(=O)C4CCCO4)C3)c2c1 (stereo partly drawn) [CBK284699],88.2312
5,O=C(O)c1ccccc1C(=O)N1CCN(Cc2ccc3c(c2)OCO3)CC1 [CBK074751],73.2369
6,Cc1ccc(C2(C(=O)N3CCCC3)CCN(S(=O)(=O)c3ccc(C)cc3)CC2)cc1 [CBK008752],98.5695
7,COc1ccccc1-c1cn2ccnc2c(Nc2cccc(Cl)c2)n1 [CBK066399],149.619
8,CCOCCc1nsc(NS(=O)(=O)c2cccc(Cl)c2C)n1 [CBK034245],70.0763
9,O=C(Cc1ccc(Cl)c(Cl)c1)NCCc1c[nH]c2ccc(Cl)cc12 [CBK159749],90.3846
10,O=C(O)c1ccccc1C(=O)OCCN1CCOCC1 [CBK261462],107.314
11,CCCCN(C)S(=O)(=O)NCCc1cn2ccccc2n1 [CBK304543],111.234
12,CN1CCN(c2ccccc2NC(=O)CSc2ccc(Cl)cc2)CC1 [CBK267941],87.188
13,C=CCNCc1cc2c(C)nn(-c3ccc(F)cc3)c2[nH]c1=O [CBK283117],70.9943
14,C=CCn1cc(CN(CCN(C)C)Cc2ccc(C)o2)c(C)n1 [CBK282844],80.3687
15,CCNS(=O)(=O)c1ccc(NS(=O)(=O)Cc2ccccc2)cc1 [CBK268257],103.224
16,FC(F)(F)C1=NC(C(F)(F)F)=NP(N2CCOCC2)(N2CCOCC2)=N1 [CBK261042],89.2824
17,Cc1ccc(-c2nccnc2OCCC(C)C)c(C)c1 [CBK106988],96.4444
18,Cc1nc(C)c(C(=O)N2CCC(c3cc4cccnc4[nH]3)CC2)s1 [CBK284998],92.7797
19,N#Cc1ccc(Cn2nc(NC(=O)c3ccco3)c3ccccc32)cc1 [CBK048260],99.2165
20,COc1cc2c(cc1OC)CN(C(=O)CSc1nc3c(c(-c4cccs4)c1C#N)CN(C)CC3)CC2 [CBK267462],92.9588
21,O=[N+]([O-])c1cccc(-c2ccc(-c3nn4c(Cc5ccccc5)nnc4s3)o2)c1 [CBK267310],96.6696

row,SMILES,% of control remaining
1,Cn1c(=O)n(CCN2CCOCC2)c(=O)c2c1nc1n2CCN1c1ccccc1 [CBK269328],84.7662
2,CCOC(=O)c1cnc(SCc2nc(N)nc(Nc3ccc(F)cc3)n2)nc1N [CBK098477],82.7404
3,O=C1COc2ccccc2C/C=C/CC2(CCN(C(=O)CCc3cccnc3)CC2)CN1 [CBK292127],77.888
4,COc1ccc(C(=O)N2CC[C@H]3NC(=O)N(c4ccccc4)C(=O)[C@H]32)cc1 [CBK289281],82.2573
5,COc1ccc(S(=O)(=O)N(C)CC(=O)N2CCN(Cc3ccccc3)CC2)cc1C [CBK268221],86.2503
6,O=C(Cn1nc(C(=O)O)c2ccccc2c1=O)NCc1ccc(Cl)cc1Cl [CBK295320],95.3336
7,COC(=O)c1c(O)noc1C [CBK023348],79.4613
8,CN(C)S(=O)(=O)NNC(=O)c1c[nH]c2ccccc12 [CBK267698],84.6964
9,O=S(=O)(NCCCn1ccnc1)c1cccs1 [CBK269912],98.0019
10,CCc1cc2cc3c(cc2nc1SCC(=O)Nc1cccc(C(C)=O)c1)OCO3 [CBK108551],107.527
11,CCC(Oc1cc(C)ccc1Cl)C(=O)Nc1sccc1C(N)=O (stereo not drawn) [CBK268152],102.528
12,O=C(c1ccc(F)cc1)N1C[C@@H](c2ccsc2)[C@@H]2CN(Cc3ccccc3)CC[C@@H]21 [CBK285635],86.0128
13,Cc1csc(C(Cc2ccsc2)NCC2=CCCOC2)n1 (stereo not drawn) [CBK282439],109.106
14,CN(C)CCCC(=O)NCc1ccc(-c2csnn2)cc1 [CBK149288],111.618
15,O=C(Nc1ccc(CCO)cc1)c1cnc(-c2ccc(Cl)cc2)c(-c2ccco2)c1 [CBK037457],98.2399
16,CCN(CC)C(=O)Cn1nc(C)n2c(cc3sc(C)cc32)c1=O [CBK284064],104.974
17,Cc1c(O)cccc1Nc1cc(-c2cccc(N(C)C)c2)ncn1 [CBK036995],105.682
18,COc1cc(C2C3=C(CC(C)(C)CC3=O)OC3=C2C(=O)CC(C)(C)C3)ccc1OCC(=O)O [CBK262379],91.0401
19,Cc1ccc(C(C)(C)C)c(OC(=O)c2cnc(C)cn2)c1 [CBK090261],113.87
20,CCCCOc1nccnc1-c1ccc(C)c(C)c1 [CBK106870],95.2194
21,CC(C)[C@H](CO)Nc1nccnc1-c1ccccc1CO [CBK037408],84.702

row,SMILES,% of control remaining
1,O=C(Nc1ccc2[nH]c(=O)[nH]c2c1)c1ccc2[nH]ccc2c1 [CBK149083],88.8573
2,CNC(=O)C1/C(=N\O)c2ccccc2N1C(C)=O (stereo not drawn) [CBK006569],105.957
3,Cc1nc(NCCc2cnc(=O)n(C)c2O)cc(C2CCOC2)n1 (stereo not drawn) [CBK307559],74.5607
4,CCN(CC)CC(C)C(O)(c1ccc(Cl)cc1)c1ccc(Cl)cc1 (stereo not drawn) [CBK012146C],70.4295
5,Cc1ccc(NC(=O)c2cc(C)[nH]n2)c(C)n1 [CBK200387],102.51
6,O=C(Nc1nc2ccccc2s1)c1cnccn1 [CBK058664],57.8917
7,CC(C)(C)C1CCc2c(sc(NC(=S)NC(=O)COc3ccccc3)c2C(N)=O)C1 (stereo not drawn) [CBK268634],135.704
8,CC(C)[C@@H](CO)Nc1nc(-c2ccc(S(C)(=O)=O)cc2)cnc1N [CBK063750],128.6
9,Cc1ccccc1OCc1nnc(SCC(N)=O)n1-c1ccccc1 [CBK268808],102.685
10,O=c1oc(-c2cccnc2)nn1Cc1ccccc1F [CBK283774],73.0907
11,O=C(c1csnn1)N1CCc2ccccc21 [CBK200408],100.598
12,CC(C)(C)OC(=O)N[C@@H](Cc1ccccc1)C(=O)NC[C@H]1CC[C@H](C(=O)O)CC1 [CBK286719],55.5045
13,NS(=O)(=O)c1ccc(C(=O)NCCc2c[nH]c3ccc(Cl)cc23)cc1 [CBK159780],111.52
14,COC(=O)c1ccccc1NC(=O)CCSc1ccc(C)cc1 [CBK265958],77.7812
15,CC(C)Cc1ccc(-c2cc(Nc3ccc(O)cc3)ncn2)cc1 [CBK090754],116.646
16,c1ccc2c3c([nH]c2c1)C12CCN(CC1)C(C1CCOC1)N2CC3 (stereo not drawn) [CBK284433],88.5774
17,c1c2c(cc3sc(N4CCOCC4)nc13)OCO2 [CBK287494],84.9307
18,COc1ccc(C)cc1S(=O)(=O)Nc1cc(N2CCN(C(C)C)CC2)c2occc2c1 [CBK073625C],93.6572
